This is one part of the list. At the low end of the ranking, values are background and their order means little.
molecular target: T1, GST-Rok (full length) (UniProt O34857); assay: protein binding microarray; conditions: Rok is a gene silencer of Bacillus subtilis; high values mean tight binding; most listed sequences are background and not binding sites; double strand, one strand shown;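 further: rank score from −0.5 (least bound) to 0.5 (best bound)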
T1 sequence: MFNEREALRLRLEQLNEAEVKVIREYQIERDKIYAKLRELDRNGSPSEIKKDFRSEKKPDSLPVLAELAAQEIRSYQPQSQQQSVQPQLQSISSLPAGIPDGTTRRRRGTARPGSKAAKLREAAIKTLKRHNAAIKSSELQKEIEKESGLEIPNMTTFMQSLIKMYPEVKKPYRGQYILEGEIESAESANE

| Sequence | binding signal |
| --- | --- |
| GTACGAGA | -0.0407 E-score |
| AGAATTCT | 0.33 E-score |
| CGTATTCC | 0.0633 E-score |
| CTGAGATA | 0.0758 E-score |
| AGCTAGGA | -0.0554 E-score |
| AAAGTAAC | 0.0799 E-score |
| ATATCATG | 0.234 E-score |
| AAATACAT | 0.348 E-score |
| CACGTGCC | -0.0911 E-score |
| AGCCCGGA | -0.16 E-score |
| AAGGATTA | -0.112 E-score |
| ATATCATC | 0.253 E-score |
| GGATCCCA | -0.325 E-score |
| TGTGCGAA | -0.0566 E-score |
| ATATCAGC | -0.0781 E-score |
| CGCTAAGA | 0.109 E-score |
| GGGGGACA | -0.316 E-score |
| CTGCCGTA | 0.0216 E-score |
| AACAGGCA | -0.225 E-score |
| AGGCATAC | 0.0929 E-score |
| ACGCTGAG | -0.163 E-score |
| TACACCAA | 0.217 E-score |
| CCGAGAGC | -0.256 E-score |
| GATTGTCC | -0.128 E-score |
| AGAACGCC | -0.0347 E-score |

| Sequence | binding signal |
| --- | --- |
| CATACAAC | 0.0896 E-score |
| GAGGCCAA | -0.194 E-score |
| ATACAGCA | 0.174 E-score |
| CGGTATCC | -0.102 E-score |
| GGAGGATA | -0.18 E-score |
| AGGCGTAT | -0.00773 E-score |
| GCATTTCC | -0.366 E-score |
| GGTCTCCA | -0.294 E-score |
| CTACCAGC | 0.228 E-score |
| AGAAATTA | 0.308 E-score |
| CGCACTGA | 0.00319 E-score |
| CTGGTAAC | 0.176 E-score |
| AGTGTCTA | 0.0381 E-score |
| CCATTATA | 0.238 E-score |
| AATAGCGA | 0.0363 E-score |
| GAGCGCGC | -0.0491 E-score |
| ACGCATTA | 0.241 E-score |
| CCACTTAG | -0.19 E-score |
| GGTCGACC | -0.245 E-score |
| CAGCCGAG | -0.162 E-score |
| CTCTCATA | -0.0869 E-score |
| AACCCTAA | -0.0824 E-score |
| CCGGCCGG | -0.279 E-score |
| CTACGGGA | -0.0694 E-score |
| ATTCATGC | 0.18 E-score |

| Sequence | binding signal |
| --- | --- |
| ACGTCGCT | -0.102 E-score |
| GGCGGCCC | -0.317 E-score |
| CCCGTCAG | -0.274 E-score |
| ACAGTTAC | 0.278 E-score |
| ATGTTCGC | -0.141 E-score |
| CGATGCAG | 0.136 E-score |
| CCGTCAAA | -0.115 E-score |
| ATTAAATA | 0.278 E-score |
| CGTACTGA | -0.0141 E-score |
| AGATAGGC | 0.223 E-score |
| CCCAGTCG | -0.307 E-score |
| CCGCGTGC | -0.285 E-score |
| CGCGCCTC | -0.338 E-score |
| TACACCTA | 0.244 E-score |
| ATATAAAT | 0.422 E-score |
| ATTACTAA | 0.357 E-score |
| CGAGTGCG | -0.23 E-score |
| CTGTAGGA | 0.0759 E-score |
| CCGAACCG | -0.165 E-score |
| GAGTCGCA | -0.166 E-score |
| CTGAGCGA | 0.00537 E-score |
| CATAGACA | 0.0191 E-score |
| GAAATGAA | 0.111 E-score |
| CTTCCAGC | -0.106 E-score |
| AAAGAAAT | -0.155 E-score |

| Sequence | binding signal |
| --- | --- |
| TACAGCAA | 0.101 E-score |
| GAAGATGC | -0.0105 E-score |
| ATCCAGTC | -0.0125 E-score |
| ACCAAGAG | -0.082 E-score |
| ATAGGCGA | 0.0448 E-score |
| CCTGCCGC | -0.38 E-score |
| GCAGAGAC | -0.215 E-score |
| CCTCGATC | -0.102 E-score |
| CAAAGGGC | -0.32 E-score |
| GAGTGCCA | -0.249 E-score |
| AATTTAAT | 0.287 E-score |
| CAACCATG | -0.173 E-score |
| ACTTGGAT | 0.0518 E-score |
| AGGAAAGC | -0.252 E-score |
| CTAAACAG | -0.0697 E-score |
| CGGAGCAG | -0.086 E-score |
| CCCGGCGG | -0.367 E-score |
| CTTCTGGA | -0.0733 E-score |
| AGGGAAGC | -0.295 E-score |
| GCAAAAAC | 0.0325 E-score |
| AAGGTAAA | 0.176 E-score |
| GAGTTCGA | -0.107 E-score |
| CTGTCACA | -0.192 E-score |
| ATCAGCCC | -0.234 E-score |
| ATTCATGA | 0.146 E-score |

| Sequence | binding signal |
| --- | --- |
| AGGCTTAG | -0.21 E-score |
| CTCAACAA | -0.0892 E-score |
| ACAGCTCC | -0.191 E-score |
| AGCCCCGG | -0.431 E-score |
| CTAACCGA | -0.186 E-score |
| ATTTGAGC | -0.0145 E-score |
| ATACTCTA | 0.174 E-score |
| ACCCCACT | -0.312 E-score |
| TACGTTCA | 0.0564 E-score |
| CTGTCGAA | 0.0417 E-score |
| GTTGTTCA | 0.0472 E-score |
| AGGAGAGA | -0.122 E-score |
| ACTGTTCT | 0.0222 E-score |
| ATATCACG | 0.24 E-score |
| CGCAATAA | 0.185 E-score |
| GGTCGGGA | -0.156 E-score |
| ATAGCCGG | -0.102 E-score |
| CCCGGTAC | -0.0862 E-score |
| GTTGGGGA | -0.187 E-score |
| CTACCGAG | 0.318 E-score |
| GAGTCGAA | -0.0875 E-score |
| CCACTGAG | 0.0548 E-score |
| GGGAGGAA | -0.192 E-score |
| CGGTCCAC | -0.195 E-score |
| CTCCGCCA | -0.14 E-score |

| Sequence | binding signal |
| --- | --- |
| GCACCTCC | -0.215 E-score |
| CAACTGTG | -0.0366 E-score |
| ACGCCTCA | -0.126 E-score |
| CTTGTATA | 0.219 E-score |
| CTCTCGGA | -0.0983 E-score |
| CATAAGCG | -0.0592 E-score |
| ACCAACTA | 0.185 E-score |
| ATCTGTTC | -0.0604 E-score |
| TATCACGA | 0.115 E-score |
| ACGATGGG | -0.0978 E-score |
| CTATGCTC | -0.158 E-score |
| CGAGTCGA | -0.195 E-score |
| GCATCAAC | 0.0602 E-score |
| CCCGTAAA | 0.076 E-score |
| ATAGCTCC | -0.156 E-score |
| AGCTCTAA | -0.106 E-score |
| CAATTCGC | 0.0831 E-score |
| GGTAATAC | 0.281 E-score |
| AGCAATTC | 0.0581 E-score |
| GCAGACGC | -0.181 E-score |
| ATCGCAAA | 0.0841 E-score |
| CAACCTAA | -0.0627 E-score |
| GCATCCCC | -0.271 E-score |
| AGTCACAA | 0.086 E-score |
| ACACCGGT | -0.00892 E-score |

| Sequence | binding signal |
| --- | --- |
| CCATAGCC | -0.27 E-score |
| AGAACACC | -0.0908 E-score |
| CTAAAACC | -0.148 E-score |
| CCATCATC | -0.308 E-score |
| GAATTGCA | -0.0598 E-score |
| ACGGATTC | 0.00983 E-score |
| CCATGCTC | -0.345 E-score |
| CCGCTAGA | 0.07 E-score |
| AGGGTCCC | -0.164 E-score |
| TATGCATA | 0.235 E-score |
| AAGATACT | 0.234 E-score |
| GGAAGACA | -0.189 E-score |
| CGTGTTTC | -0.161 E-score |
| AGTATCCC | -0.045 E-score |
| CGGATTGA | -0.0865 E-score |
| GGCCCTGA | -0.119 E-score |
| ATGCTGGG | -0.0874 E-score |
| AGTCGTGA | -0.195 E-score |
| AGGTCGGG | -0.224 E-score |
| ATACACAC | 0.108 E-score |
| ATGTTATC | 0.206 E-score |
| AAAGGCCG | -0.157 E-score |

From PMC6212790
